This is one part of the list.
Assays:
[1] = test system: HSkMC (human skeletal muscle cells); assay: cytotoxicity call (relative viability < 0.9); conditions: 10 µM
[2] = test system: HepG2; assay: cytotoxicity call (relative viability < 0.9); conditions: 10 µM
[3] = test system: S. aureus RN4220; assay: growth inhibition call (relative growth <= 0.2); conditions: 50 µM

CC(C)(C)C#CC(=O)C#CC(C)(C)C
inactive: cytotoxicity call [1] | cytotoxicity call [2] | growth inhibition call [3]

C[C@@H]1CCCCO[C@@H](CN(C)C(=O)Nc2ccc(C(F)(F)F)cc2)[C@H](C)CN([C@@H](C)CO)C(=O)c2cc(N(C)C)ccc2O1
inactive: cytotoxicity call [1] | cytotoxicity call [2] | growth inhibition call [3]

Cc1noc(C)c1S(=O)(=O)Nc1ccc2c(c1)C(=O)N([C@H](C)CO)C[C@@H](C)[C@@H](CN(C)C(=O)Nc1ccccc1)O2
inactive: cytotoxicity call [1] | cytotoxicity call [2] | growth inhibition call [3]

Fc1ccc(-c2nc3ccc4ccccc4c3c3c2CCC3)cc1
inactive: cytotoxicity call [1] | cytotoxicity call [2] | growth inhibition call [3]

O=C(CN1CCOCC1)N[C@H]1CC[C@@H](CCn2cc(C3CC3)nn2)O[C@@H]1CO
inactive: cytotoxicity call [1] | cytotoxicity call [2] | growth inhibition call [3]

S=C1NCN(Cc2ccncc2)CN1
inactive: cytotoxicity call [1] | cytotoxicity call [2] | growth inhibition call [3]

CC(C)C(=O)N1CC[C@H]2CN(CC(=O)N(C)C)S(=O)(=O)[C@@H]2CC1
inactive: cytotoxicity call [1] | cytotoxicity call [2] | growth inhibition call [3]

C[C@@H]1CN([C@H](C)CO)C(=O)c2cc(NC(=O)Nc3ccc4c(c3)OCO4)ccc2O[C@@H](C)CCCCO[C@@H]1CN(C)C(=O)CCC(F)(F)F
inactive: cytotoxicity call [1] | cytotoxicity call [2] | growth inhibition call [3]

C[C@H]1CN([C@@H](C)CO)C(=O)c2cc(-c3cccc(C(=O)N(C)C)c3)cnc2O[C@@H]1CN(C)C(=O)Cc1ccccn1
inactive: cytotoxicity call [1] | cytotoxicity call [2] | growth inhibition call [3]

COc1ccc(NC(=O)N(C)C[C@H]2Oc3c(NC(=O)Nc4cccc5ccccc45)cccc3C(=O)N([C@H](C)CO)C[C@H]2C)cc1
inactive: cytotoxicity call [1] | cytotoxicity call [2] | growth inhibition call [3]

CCC(=O)c1ccc(C)s1
inactive: cytotoxicity call [1] | cytotoxicity call [2] | growth inhibition call [3]

CCCC#Cc1ccc2c(c1)O[C@@H](CN(C)Cc1ccc3c(c1)OCO3)[C@@H](C)CN([C@@H](C)CO)S2(=O)=O
inactive: cytotoxicity call [1] | cytotoxicity call [2] | growth inhibition call [3]

COc1cccc(NC(=O)N(C)C[C@@H]2Oc3ncc(C#Cc4cccnc4)cc3C(=O)N([C@H](C)CO)C[C@H]2C)c1
inactive: cytotoxicity call [1] | cytotoxicity call [2] | growth inhibition call [3]

C[C@H](CO)N1C[C@H](C)[C@H](CN(C)S(C)(=O)=O)Oc2ccc(NC(=O)CCCN(C)C)cc2CC1=O
inactive: cytotoxicity call [1] | cytotoxicity call [2] | growth inhibition call [3]

Cc1ccc(S(=O)(=O)Nc2ccc3c(c2)C(=O)N([C@H](C)CO)C[C@@H](C)[C@@H](CN(C)C(=O)Nc2ccccc2)OCCCC[C@H](C)O3)cc1
inactive: cytotoxicity call [1] | cytotoxicity call [2] | growth inhibition call [3]

CO[C@H]1CN(C)C(=O)c2cc(NS(=O)(=O)c3cn(C)cn3)ccc2OC[C@H](C)N(CCC(F)(F)F)C[C@@H]1C
inactive: cytotoxicity call [1] | cytotoxicity call [2] | growth inhibition call [3]

C[C@@H](O)C#Cc1cnc2c(c1)C(=O)N([C@@H](C)CO)C[C@H](C)[C@@H](CN(C)Cc1cncnc1)O2
inactive: cytotoxicity call [1] | cytotoxicity call [2] | growth inhibition call [3]

C[C@@H]1CN([C@H](C)CO)C(=O)Cc2cc(NS(C)(=O)=O)ccc2O[C@H]1CN(C)C(=O)NC1CCCCC1
inactive: cytotoxicity call [1] | cytotoxicity call [2] | growth inhibition call [3]

C[C@@H]1CN([C@@H](C)CO)C(=O)c2cc(NC(=O)Nc3cccc4ccccc34)ccc2O[C@@H](C)CCCCO[C@H]1CN(C)C(=O)c1ccccc1
inactive: cytotoxicity call [1] | cytotoxicity call [2] | growth inhibition call [3]

COc1ccc(S(=O)(=O)N(C)C[C@@H]2Oc3c(cccc3N(C)C)C(=O)N([C@@H](C)CO)C[C@@H]2C)cc1
inactive: cytotoxicity call [1] | cytotoxicity call [2] | growth inhibition call [3]

O=C(CCCCCC(=O)N/N=C/[C@H](O)[C@@H](O)[C@@H](O)[C@H](O)C(=O)O)NO
inactive: cytotoxicity call [1] | cytotoxicity call [2] | growth inhibition call [3]

O=C(C[C@@H]1C[C@@H]2c3cc(NS(=O)(=O)c4ccc(F)cc4)ccc3O[C@@H]2[C@@H](CO)O1)NCc1ccccc1F
inactive: cytotoxicity call [1] | cytotoxicity call [2] | growth inhibition call [3]

C[C@@H]1CCCCO[C@H](CN(C)CC2CCCCC2)[C@H](C)CN([C@@H](C)CO)C(=O)c2cc(NC(=O)NC3CCCCC3)ccc2O1
inactive: cytotoxicity call [1] | cytotoxicity call [2] | growth inhibition call [3]

COc1ccc(S(=O)(=O)N(C)C[C@@H]2Oc3ccc(NS(C)(=O)=O)cc3C(=O)N([C@@H](C)CO)C[C@@H]2C)cc1
inactive: cytotoxicity call [1] | cytotoxicity call [2] | growth inhibition call [3]

Cc1noc(C)c1NC(=O)Nc1ccc2c(c1)C(=O)N([C@H](C)CO)C[C@H](C)[C@@H](CN(C)S(=O)(=O)c1ccc(Cl)cc1)OCCCC[C@@H](C)O2
inactive: cytotoxicity call [1] | cytotoxicity call [2] | growth inhibition call [3]

CO[C@H]1CN(C)C(=O)c2cc(NC(=O)Nc3ccccc3F)ccc2OC[C@H](C)N(CCC(F)(F)F)C[C@H]1C
inactive: cytotoxicity call [1] | cytotoxicity call [2] | growth inhibition call [3]

CNC(=O)C[C@H]1NCCNC1=O
inactive: cytotoxicity call [1] | cytotoxicity call [2] | growth inhibition call [3]

CC(C)N1C[C@H](C)[C@@H](CN(C)Cc2ccc(Cl)cc2)Oc2c(C(=O)Nc3ccncc3)cccc2C1=O
inactive: cytotoxicity call [1] | cytotoxicity call [2] | growth inhibition call [3]
